The record followed here is paper PMC7821199.

Sequences and labels used below:
T1: CotB full length (CotB^FL) (Bacillus subtilis) (UniProt P07789)
T1 sequence: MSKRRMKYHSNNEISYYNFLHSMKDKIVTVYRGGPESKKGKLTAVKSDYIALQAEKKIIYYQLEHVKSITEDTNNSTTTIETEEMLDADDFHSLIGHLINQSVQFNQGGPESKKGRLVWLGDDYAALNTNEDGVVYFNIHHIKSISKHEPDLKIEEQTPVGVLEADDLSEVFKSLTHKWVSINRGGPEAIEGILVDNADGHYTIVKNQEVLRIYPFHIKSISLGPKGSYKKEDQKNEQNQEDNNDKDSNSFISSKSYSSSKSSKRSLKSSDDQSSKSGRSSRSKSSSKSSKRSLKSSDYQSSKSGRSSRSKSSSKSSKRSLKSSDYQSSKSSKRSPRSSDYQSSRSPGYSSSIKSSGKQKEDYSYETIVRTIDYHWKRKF

T2: CotG (Bacillus subtilis) (UniProt P39801)
T2 sequence: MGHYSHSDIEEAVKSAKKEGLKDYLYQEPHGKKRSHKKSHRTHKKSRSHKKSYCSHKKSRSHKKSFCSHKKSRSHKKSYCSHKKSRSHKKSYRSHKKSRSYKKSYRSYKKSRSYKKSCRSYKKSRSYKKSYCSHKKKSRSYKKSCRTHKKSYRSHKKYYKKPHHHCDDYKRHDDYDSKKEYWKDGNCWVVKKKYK

T3: CotH (Bacillus subtilis) (UniProt Q45535)
T3 sequence: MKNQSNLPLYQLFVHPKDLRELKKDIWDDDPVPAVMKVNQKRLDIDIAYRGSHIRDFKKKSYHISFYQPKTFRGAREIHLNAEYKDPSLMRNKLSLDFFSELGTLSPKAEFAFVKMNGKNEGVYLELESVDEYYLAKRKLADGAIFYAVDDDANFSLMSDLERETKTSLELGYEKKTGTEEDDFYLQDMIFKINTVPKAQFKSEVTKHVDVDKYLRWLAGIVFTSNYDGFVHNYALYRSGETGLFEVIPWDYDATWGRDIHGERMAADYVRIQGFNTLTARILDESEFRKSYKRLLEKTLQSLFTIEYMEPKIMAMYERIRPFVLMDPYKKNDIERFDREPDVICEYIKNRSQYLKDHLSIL

T4: CotB N-terminal region (CotB^N, residues 1-213) (Bacillus subtilis) (UniProt P07789)
T4 sequence: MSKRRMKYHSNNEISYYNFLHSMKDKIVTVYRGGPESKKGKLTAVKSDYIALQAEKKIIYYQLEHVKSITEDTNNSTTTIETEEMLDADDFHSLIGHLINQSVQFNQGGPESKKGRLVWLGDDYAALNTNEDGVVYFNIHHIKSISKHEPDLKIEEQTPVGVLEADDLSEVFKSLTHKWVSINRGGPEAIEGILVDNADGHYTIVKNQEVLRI

T5: CotB C-terminal region (CotB^C, residues 195-380) (Bacillus subtilis) (UniProt P07789)
T5 sequence: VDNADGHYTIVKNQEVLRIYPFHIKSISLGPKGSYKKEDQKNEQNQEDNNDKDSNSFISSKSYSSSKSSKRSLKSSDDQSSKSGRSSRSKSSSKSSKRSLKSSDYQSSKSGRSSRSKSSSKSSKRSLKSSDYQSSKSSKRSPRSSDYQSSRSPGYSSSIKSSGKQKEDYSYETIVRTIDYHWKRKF

B1: CotG (protein, UniProt P39801 1-195)
chain: T2 sequence
B2: CotH (enzyme, UniProt Q45535 1-362)
chain: T3 sequence
B3: CotB full length (CotB^FL) (protein, UniProt P07789 1-380)
chain: T1 sequence
B4: CotB N-terminal region (CotB^N, residues 1-213) (domain or fragment, UniProt P07789 1-213)
chain: T4 sequence
B5: CotB C-terminal region (CotB^C, residues 195-380) (domain or fragment, UniProt P07789 195-380)
chain: T5 sequence

These are yes or no findings as the source states them, for the method shown. Some results given as binding are weak or reduced against the parent protein; the word gives no strength.

One assay addresses T1, CotB full length (CotB^FL) (Bacillus subtilis). Kind of assay: two-hybrid; GAL4-based yeast two-hybrid; AD fusions in pACT-2 (strain Y190), BD fusions in pAS2-1 (strain Y187), diploids; colony lift assay for lacZ expression; +++, + and − mean colour in 30 min, 1 hr and greater than 1 hr; three independent colonies for each combination.
With B1, the binding entry is given as “binds”.
The same measure, in the same setting: with B2 the entry was “no binding”; with B3, “binds”.
Consider B4, for which the binding result was “binds”.

The next assay has as its target T2, CotG (Bacillus subtilis). Described as above.
Regarding B1, the binding entry is “binds”.
On the same count and under the same terms, with B2 the entry was “no binding”.
The same measure, in the same setting: with B5 the entry was “binds”.
On the same count and under the same terms, with B3 the entry was “binds”.
In the case of B4, the binding result is “no binding”.

Another assay concerns the target T3, CotH (Bacillus subtilis). The description is as above.
Consider B1, for which the binding result is listed as “no binding”.
On the same count and under the same terms, in the case of B2 it was “no binding”; in that of B5, “no binding”; in that of B3, “no binding”.
The same measure, in the same setting: in the case of B4 it was “no binding”.

For the next assay, the target named is T4, CotB N-terminal region (CotB^N, residues 1-213) (Bacillus subtilis). The assay is described as above.
In the case of B1, the binding result is on record as “no binding”.
Same read-out and setting: with B2 the entry was “no binding”.
For the molecule B5, the binding entry is “no binding”.
As to B3, the binding entry is “binds”.
B4: the binding entry is given as “binds”.

The next assay deals with T5, CotB C-terminal region (CotB^C, residues 195-380) (Bacillus subtilis). Described as above.
In the case of B1, the binding entry was “binds”.
Regarding B2, the binding entry is recorded as “no binding”.
Still for that read-out and setting: with B5 the entry was “no binding”; with B3, “no binding”; with B4, “no binding”.
